This continues a long series; more values of the same kind are listed elsewhere.
Tests used:
Rat [1] = test: concentration in brain after dosing; conditions: 0.5 h; dosed: 2-Methyltetrahydrofuran; 10 mg/kg; oral; Female; F344
Rat [2] = test: concentration in plasma after dosing; conditions: 8 h; dosed: 2-Methyltetrahydrofuran; 100 mg/kg; oral; Female; Harlan Sprague Dawley
Rat [3] = test: concentration in brain after dosing; conditions: 2 h; dosed: 2-Methyltetrahydrofuran; 10 mg/kg; iv; Male; F344
Rat [4] = test: concentration in plasma after dosing; conditions: 1.5 h; dosed: 2-Methyltetrahydrofuran; 10 mg/kg; oral; Female; F344
Rat [5] = test: concentration in brain after dosing; conditions: 4 min; dosed: 2-Methyltetrahydrofuran; 10 mg/kg; oral; Male; F344
Rat [6] = test: concentration in brain after dosing; conditions: 0.75 h; dosed: 2-Methyltetrahydrofuran; 100 mg/kg; oral; Female; Harlan Sprague Dawley
Rat [7] = test: concentration in plasma after dosing; conditions: 8 min; dosed: 2-Methyltetrahydrofuran; 30 mg/kg; oral; Female; F344
Rat [8] = test: concentration in brain after dosing; conditions: 8 min; dosed: 2-Methyltetrahydrofuran; 10 mg/kg; oral; Male; F344
Rat [9] = test: concentration in plasma after dosing; conditions: 0.5 h; dosed: 2-Methyltetrahydrofuran; 10 mg/kg; oral; Female; F344
Rat [10] = test: concentration in brain after dosing; conditions: 1 h; dosed: 2-Methyltetrahydrofuran; 30 mg/kg; oral; Female; F344
Rat [11] = test: concentration in plasma after dosing; conditions: 4 min; dosed: 2-Methyltetrahydrofuran; 30 mg/kg; oral; Female; F344
Rat [12] = test: concentration in plasma after dosing; conditions: 2 h; dosed: 2-Methyltetrahydrofuran; 10 mg/kg; iv; Male; F344
Rat [13] = test: concentration in plasma after dosing; conditions: dosed: 2-Methyltetrahydrofuran
Rat [14] = test: concentration in plasma after dosing; conditions: 0.5 h; dosed: 2-Methyltetrahydrofuran; 30 mg/kg; oral; Female; F344
Rat [15] = test: concentration in brain after dosing; conditions: 0.5 h; dosed: 2-Methyltetrahydrofuran; 10 mg/kg; oral; Female; F344; remark: listed apart in the source
Rat [16] = test: concentration in plasma after dosing; conditions: 5 min; dosed: 2-Methyltetrahydrofuran; 400 mg/kg; oral; Male; F344

CC1CCCO1 (stereo not given) [2-Methyltetrahydrofuran]
Conditions	concentration in brain [µg/g]	concentration in plasma [ng/mL]
Rat [1]	2.29	–
Rat [2]	–	217
Rat [3]	0.241	–
Rat [4]	–	208
Rat [5]	3.27	–
Rat [6]	50.4	–
Rat [7]	–	17600
Rat [8]	2.15	–
Rat [9]	–	2380
Rat [10]	8.08	–
Rat [11]	–	12400
Rat [12]	–	209
Rat [14]	–	19500
Rat [15]	2.67	–
Rat [16]	–	256000

concentration in plasma [ng/mL], Rat [13]
Conditions	Female	Male
0.25 h, 10 mg/kg, iv, F344	6630	7420
0.25 h, 10 mg/kg, oral, F344	3480	6010
0.25 h, 30 mg/kg, oral, F344	16500	18800
0.5 h, 10 mg/kg, iv, F344	3700	5180
0.5 h, 10 mg/kg, oral, F344	2080	4200
0.5 h, 30 mg/kg, oral, F344	17500	14700
0.75 h, 10 mg/kg, oral, F344	2840	2090
0.75 h, 30 mg/kg, oral, F344	15100	17100
0.75 h, 100 mg/kg, oral, F344	40300	–
0.75 h, 100 mg/kg, oral, Harlan Sprague Dawley	39800	38500
0.75 h, 400 mg/kg, oral, F344	177000	197000
0.75 h, 400 mg/kg, oral, Harlan Sprague Dawley	199000	–
1 h, 10 mg/kg, iv, F344	1700	1950
1 h, 10 mg/kg, oral, F344	799	941
1 h, 30 mg/kg, oral, F344	13100	15000
1.5 h, 10 mg/kg, iv, F344	286	932
1.5 h, 10 mg/kg, oral, F344	388	565
1.5 h, 30 mg/kg, oral, F344	8650	11500
1.5 h, 100 mg/kg, oral, Harlan Sprague Dawley	42500	38300
1.5 h, 400 mg/kg, oral, F344	202000	156000
1.5 h, 400 mg/kg, oral, Harlan Sprague Dawley	158000	–
2 h, 10 mg/kg, iv, F344	191	282
2 h, 10 mg/kg, oral, F344	11600	106
2 h, 30 mg/kg, oral, F344	4880	4580
2 min, 10 mg/kg, iv, F344	16000	15700
2 min, 10 mg/kg, oral, F344	1170	118
2 min, 30 mg/kg, oral, F344	5800	453
2.5 h, 10 mg/kg, oral, F344	37.9	55.8
3 h, 10 mg/kg, iv, F344	57.1	46
3 h, 30 mg/kg, oral, F344	548	576
4 h, 100 mg/kg, oral, Harlan Sprague Dawley	19600	8750
4 h, 400 mg/kg, oral, F344	147000	139000
4 h, 400 mg/kg, oral, Harlan Sprague Dawley	165000	–
4 min, 10 mg/kg, oral, F344	4140	1470
4 min, 30 mg/kg, oral, F344	8770	5220
5 min, 10 mg/kg, iv, F344	11000	13800
5 min, 100 mg/kg, oral, F344	44000	66200
5 min, 100 mg/kg, oral, Harlan Sprague Dawley	23000	34700
5 min, 400 mg/kg, oral, F344	268000	259000
5 min, 400 mg/kg, oral, Harlan Sprague Dawley	245000	–
6 h, 100 mg/kg, oral, Harlan Sprague Dawley	7490	548
6 h, 400 mg/kg, oral, F344	66500	92900
6 h, 400 mg/kg, oral, Harlan Sprague Dawley	83300	–
8 h, 100 mg/kg, oral, F344	–	21.7
8 h, 100 mg/kg, oral, Harlan Sprague Dawley	447	48.8
8 h, 400 mg/kg, oral, F344	–	52200
8 h, 400 mg/kg, oral, Harlan Sprague Dawley	57700	–
8 min, 10 mg/kg, oral, F344	2950	5590
8 min, 30 mg/kg, oral, F344	13200	17600
10 min, 10 mg/kg, iv, F344	9270	12100
10 min, 10 mg/kg, oral, F344	4150	4140
10 min, 30 mg/kg, oral, F344	11900	14000
10 min, 100 mg/kg, oral, Harlan Sprague Dawley	26200	44100
10 min, 400 mg/kg, oral, F344	140000	235000
10 min, 400 mg/kg, oral, Harlan Sprague Dawley	208000	–
12 h, 100 mg/kg, oral, Harlan Sprague Dawley	5.8	–
12 h, 400 mg/kg, oral, F344	8610	1300
12 h, 400 mg/kg, oral, Harlan Sprague Dawley	13300	–
20 min, 10 mg/kg, iv, F344	5160	6730
20 min, 10 mg/kg, oral, F344	3320	6200
20 min, 30 mg/kg, oral, F344	21100	15900
20 min, 100 mg/kg, oral, Harlan Sprague Dawley	45600	51100
20 min, 400 mg/kg, oral, F344	164000	157000
20 min, 400 mg/kg, oral, Harlan Sprague Dawley	166000	–

Reference: EPA's CvTdb concentration-time database
